Source: PubChem BioAssay AID624417 (National Center for Advancing Translational Sciences (NCATS), 2012)
Among all 410,000 compounds or so, about 6,400 (1.6%) were called active. Inconclusive results, whose numbers are uncertain, are shown with a selection of clear calls. Calls come from the whole dose curve; as a rule, active = well fitted inhibition curve with a large enough effect; inconclusive = small, poorly fitted or top-dose-only effect; inactive = no such curve, though single readings can be large or run the other way. Potencies of inconclusive entries are doubtful fits and often do not repeat.

target: Glucagon-like peptide 1 receptor (Homo sapiens) (UniProt P43220); assay: qHTS of GLP-1 Receptor Inverse Agonists (Inhibition Mode); settings: HEK293 GLP-1R CRE-luciferase, luminescence, 24 h, GLP-1R form is constitutively active; activity change, negative = inhibition: at 38.3 µM (top of the series) unless noted; note: nearly all actives have a fitted effect of over 55% in size
In short: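 HEK293 cells stably co-expressing a cAMP-responsive luciferase reporter and constitutively active GLP-1R were seeded, incubated 12 h, then exposed to compounds for 24 h at 37 C. Luminescence was read 12 min after detection reagent; inverse agonists lower signal.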
% is set by controls: 0 for no effect and ±100 for the full control effect; potency is the fitted concentration of half-maximal effect; tags give direction and shape of the fitted curve.

Sequence of UniProt P43220 (P43220 whole entry, looked up): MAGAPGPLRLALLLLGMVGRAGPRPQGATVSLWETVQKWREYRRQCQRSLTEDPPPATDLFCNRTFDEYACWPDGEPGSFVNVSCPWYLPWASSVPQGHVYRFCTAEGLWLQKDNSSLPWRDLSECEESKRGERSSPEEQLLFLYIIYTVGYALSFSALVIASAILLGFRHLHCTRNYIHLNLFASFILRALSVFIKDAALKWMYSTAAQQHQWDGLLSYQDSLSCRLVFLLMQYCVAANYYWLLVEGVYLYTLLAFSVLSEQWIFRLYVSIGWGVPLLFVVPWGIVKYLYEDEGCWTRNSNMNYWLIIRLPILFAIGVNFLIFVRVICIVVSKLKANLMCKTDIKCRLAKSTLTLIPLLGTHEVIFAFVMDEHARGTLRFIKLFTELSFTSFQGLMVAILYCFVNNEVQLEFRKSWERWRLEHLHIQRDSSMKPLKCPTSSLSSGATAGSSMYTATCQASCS

Potency, active:
O=C(NCC(=O)N1CCN(C(c2ccccc2)c2ccccc2)CC1)c1ccccc1F 8.91 µM
CCc1nnc(NC(=O)c2ccc3ccccc3n2)s1 7.94 µM

Potency, inconclusive:
CN(C)c1ccc(C=Nc2ccc(N(C)C)cc2)cc1 3.16 µM [inhibitor, full curve, poor fit]
CCN(CC)C(=O)[C@H]1C[C@H](CC(=O)NC(C)(C)C)C(=O)N2CCc3c([nH]c4ccc(Cl)cc34)[C@]12C 28.2 µM [inhibitor, single point]
CCc1cc2c(=O)n(Cc3ccco3)c(SCC(=O)NCC3CCCO3)nc2s1 (centres undefined) 14.1 µM [inhibitor, single point]
C=CC[C@@H](CC(=O)N[C@H](CO)Cc1ccccc1)C(=O)NC[C@@H](OC(=O)[C@@H](CC=C)Cc1ccc(F)cc1)c1ccccc1 5.01 µM [inhibitor, full curve, poor fit]
Cc1onc(-c2c(Cl)cccc2Cl)c1C(=O)NC1CCCCC1 5.62 µM [inhibitor, full curve, poor fit]
CCOc1ccc(NS(=O)(=O)c2ccc(NC(=S)NC(=O)CC(C)C)cc2)cc1 7.08 µM [inhibitor, partial curve, poor fit]
Cc1ncoc1C(=O)N1CCCC(C(=O)Nc2cccc(-c3ccc(F)cc3)c2)C1 (centres undefined) 10 µM [inhibitor, single point]
CCOC(=O)C1=CN(Cc2cccc(F)c2)S(=O)(=O)N(CC)C1CCc1ccccc1 (centres undefined) 10 µM [inhibitor, partial curve, poor fit]
COc1ccc(N(CC(=O)NCc2ccco2)S(=O)(=O)c2ccc(C)cc2)cc1 0.316 µM [inhibitor, full curve, poor fit]
COc1ccc(CC(=O)NC(=S)Nc2cccc(C)c2)cc1 28.2 µM [inhibitor, single point]
Cc1ccc(Cn2c(CCNc3nc(-c4ccc(Cl)c([N+](=O)[O-])c4)cs3)nc3cc(C(=O)NCCCO)ccc32)cc1 12.6 µM [inhibitor, single point]
Cc1cccnc1NC(=O)c1ccc(Cl)c(S(=O)(=O)N2CCCCCC2)c1 31.6 µM [inhibitor, partial curve, poor fit]
O=S(OCCN1CCCC1)C(c1ccccc1)c1ccccc1 (centres undefined) 15.8 µM [inhibitor, single point]
CCCCn1nnnc1C(c1ccccc1)N1CCN(c2ncccc2C(F)(F)F)CC1 (centres undefined) 10 µM [inhibitor, partial curve, poor fit]
COc1ccc(CN(Cc2cccn2C)S(=O)(=O)c2ccc(F)cc2)cc1 10 µM [inhibitor, partial curve, poor fit]
COC(=O)CN1C(c2ccccc2O)Nc2ccc(Br)cc2C1c1ccccc1 (centres undefined) 15.8 µM [inhibitor, single point]
O=C(NCCc1nc2ccccc2[nH]1)/C(=C/c1ccc2c(c1)OCO2)NC(=O)c1ccc(Cl)cc1Cl 11.2 µM [inhibitor, partial curve, poor fit]
Cc1onc(-c2ccccc2Cl)c1C(=O)N(Cc1ccccc1)C(C)C 25.1 µM [inhibitor, single point]
CCOc1ccc(Cl)cc1CNCCCSc1nnnn1C 28.2 µM [inhibitor, single point]
Cc1cc(-c2ccccc2)nc(N/N=C/c2ccc(N(C)C)cc2)n1 5.62 µM [inhibitor, full curve, poor fit]
Cc1cc(C(F)(F)F)c(C#N)c(SCC(=O)Nc2nc3cc(Br)ccc3s2)n1 11.2 µM [inhibitor, partial curve]
COc1ccc(C(=O)NCc2ccccc2CN2CCCC2)cc1S(=O)(=O)Nc1ccc(C)cc1 12.6 µM [inhibitor, single point]
O=[N+]([O-])c1cccnc1N1CCN(c2ccccc2F)CC1 7.94 µM [inhibitor, partial curve, poor fit]
COCCNC(=S)N(CCc1c(C)[nH]c2ccc(F)cc12)Cc1ccc(C)cc1 6.31 µM [inhibitor, partial curve, poor fit]
CCc1sc(C(=O)Nc2ncccc2O)cc1C 5.62 µM [inhibitor, full curve]
O=c1c2ccccc2nc(SCc2nnc(-c3ccccc3)o2)n1-c1ccc(F)cc1F 11.2 µM [inhibitor, single point]
Cc1noc(COc2ccccc2OCc2onc(C)c2Cl)c1Cl 11.2 µM [inhibitor, partial curve, poor fit]
CCC(=O)Nc1nnc(SCC(=O)NCC2CCCO2)s1 (centres undefined) 5.62 µM [inhibitor, full curve, poor fit]
O=C(Nc1nc2ccccc2s1)c1ccc(N2CCCCC2)c([N+](=O)[O-])c1 4.47 µM [inhibitor, partial curve, poor fit]
O=C(Oc1c(Cl)cc(Cl)c2cccnc12)c1ccco1 3.16 µM [inhibitor, full curve, poor fit]

Activity change, negative = inhibition, inactive:
CCOc1ccc(-n2nc(CO)c(C(=O)NCc3ccccn3)n2)cc1 -2.7%
CC1(C)CC(=O)c2cc(C(=O)NC3CCSC3=O)c(=O)n(-c3ccccc3)c2C1 (centres undefined) -20.1%
O=C(N/N=C/c1cc([N+](=O)[O-])ccc1O)c1cccc(NC(=O)c2cccc(Cl)c2)c1 -9.24%
O=C(O)c1ccc(/C=N/NC(=O)c2cc3ccccc3cc2O)cc1 -8.79%
CCOC(=O)CNc1c(-c2ccc(OC)cc2)nc2ccc(Cl)cn12 15.9%
CN(C)c1ccc(NC(=O)c2cnsn2)cc1 2.09% [at 0.307 µM]
CCN(CC)S(=O)(=O)c1ccc2c(c1)N(CC(=O)Nc1ccc(OC)cc1)C(=O)CS2 2.77%
